This note sets out measurements from the supplement of paper PMC12067230.

The data scatter; read single values as rough.
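Also: [psi-pin-] Saccharomyces cerevisiae expressing SupN fusions, induced by 100 µM Cu2SO4, selected 7 d at 30 °C without adenine and uracil, scored by deep sequencing of output versus input.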

One data set in a line: amyloid nucleation score relative to library mode (yeast Sup35 reporter selection) (log enrichment difference); higher = more amyloid nucleation; sequences are the first 22 residues of the Bri2 peptide extended by up to 12 random residues. Particulars: random library (experiment): 1;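 active = nucleation score significantly above 0 at FDR 0.05; inactive = not significantly above 0 or absent from output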.
Consider EASNCFAIRHFENKFAVETLICRHEVAYSGSVLN, for which the amyloid nucleation score is 2.7.

Sequence EASNCFAIRHFENKFAVETLICRHEYSERWPQSG gave an amyloid nucleation score of 5.31.

EASNCFAIRHFENKFAVETLICRHGYWVNSSRWE had an amyloid nucleation score of 1.95.

As to EASNCFAIRHFENKFAVETLICRHNSCWAWILWQ, the amyloid nucleation score entry was “inactive”.

Consider EASNCFAIRHFENKFAVETLICRHRLVGGEVNNG, for which the amyloid nucleation score worked out at 0.443.

Turning to EASNCFAIRHFENKFAVETLICRHRLVSMGLYWV, the amyloid nucleation score entry is “inactive”.

In the case of EASNCFAIRHFENKFAVETLICRHRNSE, the amyloid nucleation score entry was “inactive”.

EASNCFAIRHFENKFAVETLICRHSPMYRKDLGL displayed an amyloid nucleation score of -0.813.

As to EASNCFAIRHFENKFAVETLICRHSTYHH, the amyloid nucleation score result is “inactive”.

For EASNCFAIRHFENKFAVETLICRHVLWEAEVLPM, the amyloid nucleation score result is “inactive”.

Turning to EASNCFAIRHFENKFAVETLICRHWRNYAPRGTR, the amyloid nucleation score result was “inactive”.

Consider EASNCFAIRHFENKFAVETLICRHYLKDQSHARR, for which the amyloid nucleation score entry is “inactive”.

EASNCFAIRHFENKFAVETLICRHYMNWASWESR registered an amyloid nucleation score of 1.3.

Take EASNCFAIRHFENKFAVETLICRICRFFRPVMAG: the amyloid nucleation score entry was “inactive”.

In the case of EASNCFAIRHFENKFAVETLICRIG, the amyloid nucleation score was determined as 4.68.

EASNCFAIRHFENKFAVETLICRIGC: the amyloid nucleation score worked out at 6.4.

Turning to EASNCFAIRHFENKFAVETLICRIGEGPYLSAYR, the amyloid nucleation score entry is “inactive”.

On to EASNCFAIRHFENKFAVETLICRIGGHKDHVNDA, for which the amyloid nucleation score result is “inactive”.

In the case of EASNCFAIRHFENKFAVETLICRIGHPRHVLWQS, the amyloid nucleation score was -0.0194.

EASNCFAIRHFENKFAVETLICRIGIF: the amyloid nucleation score entry is “inactive”.

For EASNCFAIRHFENKFAVETLICRIGIQVICRRAD, the amyloid nucleation score result was “inactive”.

EASNCFAIRHFENKFAVETLICRIGLR: the amyloid nucleation score entry is “inactive”.

Consider EASNCFAIRHFENKFAVETLICRIGVLCGMVCSL, for which the amyloid nucleation score result was “inactive”.

EASNCFAIRHFENKFAVETLICRIIGPCYRDDLR registered an amyloid nucleation score of 2.49.

For the sequence EASNCFAIRHFENKFAVETLICRILLISTDCIAS, the amyloid nucleation score entry is “inactive”.

Take EASNCFAIRHFENKFAVETLICRIP: the amyloid nucleation score entry is “inactive”.

Take EASNCFAIRHFENKFAVETLICRIQRSAMHCECR: the amyloid nucleation score result is “inactive”.

Consider EASNCFAIRHFENKFAVETLICRIRIT, for which the amyloid nucleation score result is “inactive”.

With EASNCFAIRHFENKFAVETLICRIRLGKDELKRG, the amyloid nucleation score entry was “inactive”.

As to EASNCFAIRHFENKFAVETLICRIRPILSTCAVS, the amyloid nucleation score result is “inactive”.

EASNCFAIRHFENKFAVETLICRIRRTGHVMEQG: the amyloid nucleation score result was “inactive”.

For EASNCFAIRHFENKFAVETLICRIRSCLSALAVA, the amyloid nucleation score entry was “inactive”.

Take EASNCFAIRHFENKFAVETLICRISSIHYSCKMW: the amyloid nucleation score result is “inactive”.

In the case of EASNCFAIRHFENKFAVETLICRITSRFWLYMKY, the amyloid nucleation score entry is “inactive”.

For EASNCFAIRHFENKFAVETLICRITTGARTARWA, the amyloid nucleation score entry is “inactive”.

In turn, EASNCFAIRHFENKFAVETLICRIVSTPRSGWAA displayed an amyloid nucleation score of -0.295.

For EASNCFAIRHFENKFAVETLICRIWPVWTEAIPC, the amyloid nucleation score entry was “inactive”.

As to EASNCFAIRHFENKFAVETLICRIWRNTAKVVNG, the amyloid nucleation score result is “inactive”.

In the case of EASNCFAIRHFENKFAVETLICRIYVLVVNIRGE, the amyloid nucleation score result was “inactive”.

As to EASNCFAIRHFENKFAVETLICRK, the amyloid nucleation score entry is “inactive”.

As for EASNCFAIRHFENKFAVETLICRKAECFCYPREV, the amyloid nucleation score result is “inactive”.

In the case of EASNCFAIRHFENKFAVETLICRKAFLSYCDVWR, the amyloid nucleation score entry was “inactive”.

In the case of EASNCFAIRHFENKFAVETLICRKFFVVARMRDL, the amyloid nucleation score result was “inactive”.

The sequence EASNCFAIRHFENKFAVETLICRKGYDRHFRANR gave an amyloid nucleation score of -0.456.

For EASNCFAIRHFENKFAVETLICRKHRALMFTAVV, the amyloid nucleation score entry is “inactive”.

As for EASNCFAIRHFENKFAVETLICRKHSHSWDLAVR, the amyloid nucleation score was -0.736.

Turning to EASNCFAIRHFENKFAVETLICRKKAEVRQGRGA, the amyloid nucleation score entry is “inactive”.

For the sequence EASNCFAIRHFENKFAVETLICRKKQVD, the amyloid nucleation score entry was “inactive”.

The same data set, now with this note: random library (experiment): 2.
On to EASNCFAIRHFENKFAVETLICRHCSQAIVWLYN, for which the amyloid nucleation score entry is “inactive”.

As to EASNCFAIRHFENKFAVETLICRHFLGMGDSAEY, the amyloid nucleation score entry was “inactive”.

Take EASNCFAIRHFENKFAVETLICRHHSWPLLGSGR: the amyloid nucleation score result was “inactive”.

As to EASNCFAIRHFENKFAVETLICRHKTVSRCLTCG, the amyloid nucleation score amounted to 0.111.

For EASNCFAIRHFENKFAVETLICRHLIVHRTSFVS, the amyloid nucleation score entry is “inactive”.

Turning to EASNCFAIRHFENKFAVETLICRHNIMRGSPWWG, the amyloid nucleation score result is “inactive”.

For the sequence EASNCFAIRHFENKFAVETLICRHSRVGTRGEPV, the amyloid nucleation score result was “inactive”.

In turn, EASNCFAIRHFENKFAVETLICRHTCTSDTYIAH had an amyloid nucleation score of 4.61.

Consider EASNCFAIRHFENKFAVETLICRHVL, for which the amyloid nucleation score entry was “inactive”.

As for EASNCFAIRHFENKFAVETLICRHWCE, the amyloid nucleation score result was “inactive”.

With EASNCFAIRHFENKFAVETLICRICNHVSRCVEE, the amyloid nucleation score entry was “inactive”.

As to EASNCFAIRHFENKFAVETLICRIGSYLWSMGTW, the amyloid nucleation score result was “inactive”.

For EASNCFAIRHFENKFAVETLICRIINV, the amyloid nucleation score result is “inactive”.

Consider EASNCFAIRHFENKFAVETLICRILCSIYFGGIQ, for which the amyloid nucleation score result was “inactive”.

As for EASNCFAIRHFENKFAVETLICRILHSSVGFFTS, the amyloid nucleation score entry is “inactive”.

Turning to EASNCFAIRHFENKFAVETLICRILSSAYFGFSG, the amyloid nucleation score entry is “inactive”.

The sequence EASNCFAIRHFENKFAVETLICRINLDGPYYGRG returned an amyloid nucleation score of 3.61.

For EASNCFAIRHFENKFAVETLICRIQHAAPYTGES, the amyloid nucleation score result is “inactive”.

For the sequence EASNCFAIRHFENKFAVETLICRIRLGYVINVDW, the amyloid nucleation score was determined as 0.693.

Take EASNCFAIRHFENKFAVETLICRIRVIGFRRVVR: the amyloid nucleation score entry was “inactive”.

As for EASNCFAIRHFENKFAVETLICRISQGLSEVFSA, the amyloid nucleation score entry was “inactive”.

On to EASNCFAIRHFENKFAVETLICRITIRS, for which the amyloid nucleation score result was “inactive”.

For the sequence EASNCFAIRHFENKFAVETLICRIWD, the amyloid nucleation score is 1.59.

For EASNCFAIRHFENKFAVETLICRIYKLF, the amyloid nucleation score result is “inactive”.

With EASNCFAIRHFENKFAVETLICRIYWEYMCRLDK, the amyloid nucleation score entry was “inactive”.

For the sequence EASNCFAIRHFENKFAVETLICRKAHLALLSWHL, the amyloid nucleation score result was “inactive”.

Take EASNCFAIRHFENKFAVETLICRKCIFSAISVDV: the amyloid nucleation score entry was “inactive”.

With EASNCFAIRHFENKFAVETLICRKERESSRCV, the amyloid nucleation score entry is “inactive”.

Take EASNCFAIRHFENKFAVETLICRKGFVTNMRLV: the amyloid nucleation score result is “inactive”.

For the sequence EASNCFAIRHFENKFAVETLICRKGV, the amyloid nucleation score entry was “inactive”.

As for EASNCFAIRHFENKFAVETLICRKKLCNCVGGIL, the amyloid nucleation score result is “inactive”.

The data set is the same for the next values; noted with them: random library (experiment): 3.
EASNCFAIRHFENKFAVETLICRHAVRQDVAVWW: the amyloid nucleation score result was “inactive”.

As for EASNCFAIRHFENKFAVETLICRHDKVLLTECSH, the amyloid nucleation score entry was “inactive”.

On to EASNCFAIRHFENKFAVETLICRHMSGVLWMYGT, for which the amyloid nucleation score entry was “inactive”.

As to EASNCFAIRHFENKFAVETLICRHPGVGREER, the amyloid nucleation score entry is “inactive”.

Take EASNCFAIRHFENKFAVETLICRHPSGCGESPVR: the amyloid nucleation score entry was “inactive”.

Turning to EASNCFAIRHFENKFAVETLICRHQVL, the amyloid nucleation score entry was “inactive”.

Turning to EASNCFAIRHFENKFAVETLICRHRIRCRCKV, the amyloid nucleation score result was “inactive”.

For the sequence EASNCFAIRHFENKFAVETLICRHSALR, the amyloid nucleation score result is “inactive”.

For EASNCFAIRHFENKFAVETLICRHWSVRRGVWPR, the amyloid nucleation score entry was “inactive”.

With EASNCFAIRHFENKFAVETLICRIGLKGGRFEWP, the amyloid nucleation score entry is “inactive”.

Consider EASNCFAIRHFENKFAVETLICRIGRGWMSTGCL, for which the amyloid nucleation score result was “inactive”.

As to EASNCFAIRHFENKFAVETLICRIIVSFRNLRFE, the amyloid nucleation score result was “inactive”.

In turn, EASNCFAIRHFENKFAVETLICRILN had an amyloid nucleation score of 0.315.

Consider EASNCFAIRHFENKFAVETLICRIPWKYARSCGW, for which the amyloid nucleation score result was “inactive”.

With EASNCFAIRHFENKFAVETLICRIRS, the amyloid nucleation score result was “inactive”.

Turning to EASNCFAIRHFENKFAVETLICRISFKFSWLRLP, the amyloid nucleation score entry is “inactive”.

With EASNCFAIRHFENKFAVETLICRITSDTPIRRKV, the amyloid nucleation score result is “inactive”.

EASNCFAIRHFENKFAVETLICRITWCVDLGAPG: the amyloid nucleation score result is “inactive”.

With EASNCFAIRHFENKFAVETLICRKDSGTSLVSKV, the amyloid nucleation score came out at 3.97.

Regarding EASNCFAIRHFENKFAVETLICRKFCRVWGEAL, the amyloid nucleation score entry is “inactive”.

In the case of EASNCFAIRHFENKFAVETLICRKFMCRCRVVFE, the amyloid nucleation score came to 2.63.

Consider EASNCFAIRHFENKFAVETLICRKGCVGCPLCRA, for which the amyloid nucleation score result is “inactive”.

Consider EASNCFAIRHFENKFAVETLICRKGYGQPLRAGG, for which the amyloid nucleation score entry is “inactive”.
